Experimental data taken from patent publication US5159002A, “Method for purifying dermostatin A and dermostatin B” (Xechem Inc., priority 1990, dated 1992).

System: reverse transcriptase
Experiment: microbe, parasite or virus in culture
Format: cell-based, HIV
Details: for % Viral Activity, RT: Table IV, added with HIV, 4 days
[1] = Human immunodeficiency virus 1, H9, 96 h, read-out: % Viral Activity, RT

| Compound | % Viral Activity, RT (conc. 0.01 (g/ml as printed)) [%] | % Viral Activity, RT (conc. 0.1 (g/ml as printed)) [%] | % Viral Activity, RT (conc. 10 (g/ml as printed)) [%] | activity at 0.01 µg/mL [1] [%] | activity at 0.1 µg/mL [1] [%] | activity at 1 µg/mL [1] [%] | activity at 10 µg/mL [1] [%] | % Viral Activity, RT (conc. 1.0 (g/ml as printed)) [%] |
| --- | --- | --- | --- | --- | --- | --- | --- | --- |
| C[C@@H]1[C@H](O)[C@@H](C)/C=C/C=C/CC/C=C/C=C/C=C/C=C/[C@H](O[C@@H]2O[C@H](C)[C@@H](O)[C@H](N)[C@@H]2O)C[C@@H]2O[C@](O)(C[C@@H](O)C[C@@H](O)[C@H](O)CC[C@@H](O)C[C@@H](O)CC(=O)O[C@H]1C)C[C@H](O)[C@H]2C(=O)O [Amphotericin A] | 84 | 92 | 55 | – | – | – | – | – |
| C[C@@H]1[C@H](O)[C@@H](C)/C=C/C=C/C=C/C=C/C=C/C=C/C=C/[C@H](O[C@@H]2O[C@H](C)[C@@H](O)[C@H](N)[C@@H]2O)C[C@@H]2O[C@](O)(C[C@@H](O)C[C@@H](O)[C@H](O)CC[C@@H](O)C[C@@H](O)CC(=O)O[C@H]1C)C[C@H](O)[C@H]2C(=O)O [Amphotericin B] | – | – | – | 100 | 100 | 48 | 40 | – |
| C[C@@H]1[C@H](O)[C@@H](C)/C=C/C=C/CC/C=C/C=C/C=C/C=C/C(O[C@H]2O[C@H](C)[C@@H](O)[C@H](N)[C@@H]2O)CC2O[C@](O)(CC(O)C(O)CCC(O)CC(O)CC(O)CC(=O)O[C@H]1C)CC(O)C2C(=O)O (some centres unmarked) [Nystatin] | 87 | 86 | 47 | – | – | – | – | 84 |
